Our source for the binding signal values is article PMC12136788.

This is one part of the list.

The labels stand for the following.
B1: 3247649_3247769_182_3pUTR_ENSG00000101608_ENST00000217652|human|control|control (ssRNA)
RNA: GGGAGUUCUACAGUCCGACGAUCUCUUGGCCCGCAGAGUGGGUCUGACUUCACGGAGGGGCGACAGAGAGGGAAGUCGCCAGUGUGGUCAGCGGGCGUGGUAUUGACCAAGUGCAUGAGAAGGAAGUGUAAAGUGGGCGACCUCAACAGAGGAUUGAGCAUCA
B2: chr17:39847130:39847131:+_ENSG00000173812_ENST00000469257|hu_hu|FALSE|FALSE (ssRNA)
RNA: GGGAGUUCUACAGUCCGACGAUCGUUACAUUAUACAAGCUGUGAGGUUUUUAAACCUGUGACAAGGGAGAGAAGGGAAAUUCUACUCAUUGCAAGGAAAUCCUCACUUAAGCUUCAGUGAGCCACAAGCACUUAAAACCCAUGCAACAGAGGAUUGAGCAUCA
B3: chr9:135205225:135205226:-_ENSG00000107290_ENST00000224140|hu_hu|FALSE|FALSE (ssRNA)
RNA: GGGAGUUCUACAGUCCGACGAUCUGCAGAAGUCAGAUCCACAAAAGUGUUACAUGGAGGUGCUUUGAAUUUUAUGUUUCUAAUAAUUUGCUUUAAGCAACUUUGUAGCUCAUGGGUUUCCUGACUAGUCAACUGCCAACCUAGCAACAGAGGAUUGAGCAUCA
B4: 38783104_38791802_1884_CDS_ENSG00000006715_ENST00000395969|human|control|control (ssRNA)
RNA: GGGAGUUCUACAGUCCGACGAUCAAUCAUCUUCAGGGCACUUCGGCUAUUACCCAUUCGGCUCAGAAGAUAAACUGUCUCUUCUACAAAGUUUCUCUGUUGACAGAUCUCAAGAGCCUUUUCAAGUGGGCAAUGGGUACUGUCCAACAGAGGAUUGAGCAUCA
B5: chr10:36716825:36716826:+_ENSMUSG00000019777_ENSMUST00000019911|mus_mus|FALSE|FALSE (ssRNA)
RNA: GGGAGUUCUACAGUCCGACGAUCGGCAACAUUCCGGAUUGUGUAGCCUCCUCCACCGAGCAUCAGCAAUGGCAAGUUAAAAGUUUUCACUACUUCUACACAUUUAGCAUGACCUUUGACAGUUAGAUUGAAACAACCAAGCCUCAACAGAGGAUUGAGCAUCA
B6: chr4:65274301:65274302:+_ENSMUSG00000051675_ENSMUST00000050850|mus_hu|motif|central (ssRNA)
RNA: GGGAGUUCUACAGUCCGACGAUCGUGCAGAAGCUUGGGACGCAGCUGCUCUUCUGUGAAGGACUCCAUGCAGAUGGGGCAUUCGGGCACUUCCCGGAGGGCAUCCAGGUUCAGGUGAGAAGCUGCUGCUGCAGCCAUUGCUCUCAACAGAGGAUUGAGCAUCA
B7: chr1:220276048:220276049:+_ENSG00000067704_ENST00000302637|hu_hu|hu_hu_hu_mus_True|58_68 (ssRNA)
RNA: GGGAGUUCUACAGUCCGACGAUCGCAAAUUGCCUGGUUGGCGGGAAUUGUCCAAGGCUGGGUGGUCCAGACCAAAAUACUAACAGGGGAUGAGGCAUCUGUAAGAGACUCCAACUUCGGAGGAGGUCUCAGGAGGGGGAAUCUCAACAGAGGAUUGAGCAUCA
B8: 35327902_35333505_881_CDS_ENSG00000108094_ENST00000537177|human|control|control (ssRNA)
RNA: GGGAGUUCUACAGUCCGACGAUCGUGGUCUGCUACCAUUCGUUGUUGACAUUCAUGAAUCACCUUAGUAUAUGAACUUGGAUGUAGGUAUUUUCGACAUCGAAUUUCUUCAUCUUUUAAUCUACCUAGAACCUUUUCCAUAUACAACAGAGGAUUGAGCAUCA
B9: 98515251_98519444_2840_CDS_ENSG00000196367_ENST00000355540|human|control|control (ssRNA)
RNA: GGGAGUUCUACAGUCCGACGAUCCUUACCGAGCACACGGUAGGCCACGUGGGAGAUGCUGUCAGCAGGGUUGCGUAAGGUGCGCCACAGAGCCUGCAUGAGCUCUGCGCGCACCGGCUGGAUGUGGUCGUAGAGGAAGUCGGGCAACAGAGGAUUGAGCAUCA
B10: 18861663_18861783_5531_CDS_ENSG00000157106_ENST00000446231|human|control|control (ssRNA)
RNA: GGGAGUUCUACAGUCCGACGAUCAGUUGCACUUUCAUCAAGUUCUGAAAGCCAUGGGCAGCUUGAUAUCAACUGACGCCAGAUAACAUCAACCAUGUCAUCUUCUUCGUUGUCUUCACUCUCAGUUAUCUGAAGUGUUAUAUCCAACAGAGGAUUGAGCAUCA
B11: chr2:153237265:153237266:-_ENSMUSG00000061411_ENSMUST00000109784|mus_mus|mus_mus_mus_hu_False|28_98 (ssRNA)
RNA: GGGAGUUCUACAGUCCGACGAUCAAAAAAAAAAAAAGAAAAGUGUCCUUGUGCCCAAAGUCUCAGGUGCUUGGAGUGUGGCUAGAAACAGCUCUUUUGGAUCCCACCUCUUUCAGAAACAAAAUGUACCAACUGGUGAGGCAGCAACAGAGGAUUGAGCAUCA
B12: chr4:140556289:140556290:+_ENSMUSG00000036622_ENSMUST00000037055|mus_mus|mus_mus_mus_hu_False|18_28 (ssRNA)
RNA: GGGAGUUCUACAGUCCGACGAUCGAUGGAGCUCACCAGGCCCCCUUUUGCCGUGCAGAACCCUGUGCGGGUCACCACUGCCAGGACGUGCGGUCCCACAUAGGCCCGGGCCUGCAGAAUGAGGGUGCCGCAGAAGAGUGUGUGCAACAGAGGAUUGAGCAUCA
B13: chr5:21408736:21408737:-_ENSMUSG00000042453_ENSMUST00000161356|mus_hu|mus_mus_mus_hu_False|48_58 (ssRNA)
RNA: GGGAGUUCUACAGUCCGACGAUCGUUGACAGAGUUGUAGAUGGUGGCUUCAUGGAACUGGAAAGGGGAGCAGCCAAUGCUAUUGGAAGAGGAAGGUAGGCACUGGGUCUGUACGAGCUGCCAGGAAUCCGAUCUUGCAUCCUUCAACAGAGGAUUGAGCAUCA
B14: chr10:127452298:127452299:+_ENSMUSG00000025395_ENSMUST00000026461|mus_mus|motif|central (ssRNA)
RNA: GGGAGUUCUACAGUCCGACGAUCAAAGCUUGAGUAGCUCCGGCAGCUCCGCAGGAUCAAAUGGCUCCAUGAAGUAAAGAACGGGACCCGGACAGGACUGACACGAGAAUUGGCGGGAACAAGACAGGCCUCCAUCCCUGCGCGCAACAGAGGAUUGAGCAUCA
B15: chr1:225977404:225977405:+_ENSG00000143742_ENST00000304786|hu_mus|motif|central (ssRNA)
RNA: GGGAGUUCUACAGUCCGACGAUCUACUCCAAAAGAAACAUACCACUGCAGCAAAAGUUACAUUUUAUUUCAUCUUAGACACAAUCGGGAAAGACCUUUUCUUGUUAACUCUUCAACAAAUUACUGACAUGAAUUUACCAGAAACAACAGAGGAUUGAGCAUCA
B16: chr1:46159212:46159213:+_ENSG00000159596_ENST00000372025|hu_mus|hu_hu_hu_mus_True|38_68 (ssRNA)
RNA: GGGAGUUCUACAGUCCGACGAUCUCUGAUCCCUCCCAAGAAAGCUAGGAAACCGGCUCCAUAAGCCAUCUGAGUAAAAGCUAGGACGGGGAUAUAAGUUUUUGUCAUUACCAUGAGAAGUGGGGGAGCAGUAAAGGGGAUUAACAACAGAGGAUUGAGCAUCA
B17: chr3:10015032:10015033:+_ENSMUSG00000027533_ENSMUST00000029046|mus_mus|mus_mus_mus_hu_True|68_88 (ssRNA)
RNA: GGGAGUUCUACAGUCCGACGAUCGUUUUUACCAUCACAAGUGAUGAUACAGUCUGGCUUGGCCAUUGCAGCCAUCUUUCGCAAAGCUAUUCCCACUCCUAGCUCCUUCAUGUAUUCAUCAAAGCCUUUGCUGUCCACCAGGCGCAACAGAGGAUUGAGCAUCA
B18: chr4:107939148:107939149:-_ENSMUSG00000034636_ENSMUST00000043616|mus_mus|FALSE|FALSE (ssRNA)
RNA: GGGAGUUCUACAGUCCGACGAUCCAUCUGGUUACCUCUGAAAAUUCCCACAGUUCCAUCAUUCAGGAGACCGUGGAAUGCUAUAGUCUGAAGAAGCCGGUCAGCCACCUCCUGUGGGAACACCCCAGGCUCCUGCAGACACAGCAACAGAGGAUUGAGCAUCA
B19: chr18:32579733:32579734:+_ENSMUSG00000024381_ENSMUST00000025239|mus_mus|FALSE|FALSE (ssRNA)
RNA: GGGAGUUCUACAGUCCGACGAUCUUUAUGGAAGUUUUCCUCCAGACCCGCGAUGCUCUGGAACGUGUUGACAUAGAAACCUACACGGCUGUUCCACAGGGAUGGCAGCUCCUCCUGCAGAUCCACGUUCAUCUCCUCGAACACCAACAGAGGAUUGAGCAUCA
B20: chr12:88041583:88041584:-_ENSMUSG00000021257_ENSMUST00000021682|mus_hu|FALSE|FALSE (ssRNA)
RNA: GGGAGUUCUACAGUCCGACGAUCUAAACCUUUAUUUGGAAAAAGAGUUUAAAUAACAAUUUAAAACCCCAUUUCACUUUCAAAACAGAAACAAGAAAGCAAGGAAAAGAUAAUCUAUCAAGCAUCUGCCCUCUGCUGUGGUUACAACAGAGGAUUGAGCAUCA
B21: chr17:64630434:64630435:-_ENSMUSG00000024083_ENSMUST00000172818|mus_hu|FALSE|FALSE (ssRNA)
RNA: GGGAGUUCUACAGUCCGACGAUCUCUGUUUAUUGUUUAUGAUUUACACAGAAAAUGAUGGGCUGGGGUUAUAGAACAAUAAACCAACCAUUACAUUUAGACCUGGGCUUUUGAAAAACUUGCAUUCCAUUUUAACAAUUCGUACAACAGAGGAUUGAGCAUCA
B22: 81895909_81896029_560_3pUTR_ENSMUSG00000031681_ENSMUST00000066091|mouse|control|control (ssRNA)
RNA: GGGAGUUCUACAGUCCGACGAUCGGGCAGCUCAGGGCCUUCUCCAGCUCUUCCAUGGCCCCUUUCUUCUUCUUCAGUUUCUUCACCAAAGCGUCCACAGCUUUCUCUGCCCAUUUCUCUUCUUCAUCGCCCUGUUUCCACCCACAACAGAGGAUUGAGCAUCA

In the assay the target is T1, UNK ZnF1-3 (human, UniProt Q9C0B0 31-174).
T1 sequence: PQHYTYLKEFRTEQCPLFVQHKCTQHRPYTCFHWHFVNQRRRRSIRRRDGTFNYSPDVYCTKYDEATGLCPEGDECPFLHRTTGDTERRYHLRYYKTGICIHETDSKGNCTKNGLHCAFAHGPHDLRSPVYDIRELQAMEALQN
Kind of assay: nsRBNS (natural sequence RNA bind-n-seq); RBNS binding buffer (assumed for nsRBNS): 25 mM Tris pH 7.5, 150 mM KCl, 3 mM MgCl2, 0.01% Triton X-100, 500 ug/ml BSA, 20 U/ml SUPERase-In, 4 C; UNK is unkempt and MSI1 is Musashi-1; names of the RNAs are library labels; protein concentration not given here; high values mean tight binding.
On to B1, for which the binding signal worked out at 1.23 enrichment R.

In the case of B2, the binding signal came out at 1.25 enrichment R.

In turn, B3 came in with a binding signal of 1.31 enrichment R.

B4 registered a binding signal of 0.393 enrichment R.

For the molecule B5, the binding signal stood at 1.73 enrichment R.

The molecule B6 came in with a binding signal of 0.843 enrichment R.

Molecule B7 gave a binding signal of 2.19 enrichment R.

B8 registered a binding signal of 0.572 enrichment R.

Turning to B9, the binding signal was determined as 1.31 enrichment R.

On to B10, for which the binding signal was 0.541 enrichment R.

For B11, the binding signal was found to be 2.16 enrichment R.

Take B12: the binding signal came out at 0.672 enrichment R.

B13 showed a binding signal of 1.58 enrichment R.

Molecule B14 came in with a binding signal of 1.65 enrichment R.

B15 registered a binding signal of 0.854 enrichment R.

For the molecule B16, the binding signal stood at 1.47 enrichment R.

The molecule B17 came in with a binding signal of 0.787 enrichment R.

For B18, the binding signal worked out at 0.86 enrichment R.

B19 showed a binding signal of 0.584 enrichment R.

B20 showed a binding signal of 1.41 enrichment R.

In the case of B21, the binding signal turned out to be 1.13 enrichment R.

With B22, the binding signal was found to be 0.917 enrichment R.
